# The other results are listed elsewhere or left out.
# B1: Siglec-7-SA-PE-180 (Homo sapiens), Q9Y286 (protein)
# chain: MLLLLLLPLLWGRERVEGQKSNRKDYSLTMQSSVTVQEGMCVHVRCSFSYPVDSQTDSDPVHGYWFRAGNDISWKAPVATNNPAWAVQEETRDRFHLLGDPQTKNCTLSIRDARMSDAGRYFFRMEKGNIKWNYKYDQLSVNVTALTHRPNILIPGTLESGCFQNLTCSVPWACEQGTPPMISWMGTSVSPLHPSTTRSSVLTLIPQPQHHGTSLTCQVTLPGAGVTTNRTIQLNVSYPPQNLTVTVFQGEGTASTALGNSSSLSVLEGQSLRLVCAVDSNPPARLSWTWRSLTLYPSQPSNPLVLELQVHLGDEGEFTCRAQNSLGSQHVSLNLSLQQEYTGKMRPVSGVLLGAVGGAGATALVFLSFCVIFIVVRSCRKKSARPAADVGDIGMKDANTIRGSASQGNLTESWADDNPRHHGLAAHSSGEEREIQYAPLSFHKGEPQDLSGQEATNNEYSEIKIPK
# Legend:
# Test in all cases: glycan array binding signal (z-score within array); higher = stronger binding
# Conditions in all cases: glycan notation: IUPAC condensed, linker removed
# [1] = biological target: Fuc(a1-2)Gal(b1-4)GlcNAc(b1-3)[Fuc(a1-3)[Gal(b1-4)]GlcNAc(b1-6)]Gal(b1-4)Glc
# Procedure, shortened: (§1)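 Negative Z-scores can be read as non-binding. The Z-score is calculated within each array and then averaged across arrays of one protein sequence at different concentrations or buffers and across linkers. Arrays, 3228 in all, were curated from the Consortium for Functional Glycomics database and kept only where the protein sequence was available.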
# [2] = biological target: Fuc(a1-2)Gal(b1-4)GlcNAc(b1-6)GalNAc
# Procedure, shortened: as §1
# [3] = biological target: Fuc(a1-2)Gal(b1-4)GlcNAc6S
# Procedure, shortened: as §1
# [4] = biological target: Fuc(a1-2)Gal(b1-4)[Fuc(a1-3)]GlcNAc
# Procedure, shortened: as §1
# [5] = biological target: Fuc(a1-2)Gal(b1-4)[Fuc(a1-3)]GlcNAc(b1-2)Man(a1-3)[Fuc(a1-2)Gal(b1-4)[Fuc(a1-3)]GlcNAc(b1-2)Man(a1-6)]Man(b1-4)GlcNAc(b1-4)GlcNAc
# Procedure, shortened: as §1
# [6] = biological target: Fuc(a1-2)Gal(b1-4)[Fuc(a1-3)]GlcNAc(b1-2)Man(a1-3)[Fuc(a1-2)Gal(b1-4)[Fuc(a1-3)]GlcNAc(b1-2)Man(a1-6)]Man(b1-4)GlcNAc(b1-4)[Fuc(a1-6)]GlcNAc
# Procedure, shortened: as §1
# [7] = biological target: Fuc(a1-2)Gal(b1-4)[Fuc(a1-3)]GlcNAc(b1-2)Man(a1-6)[Fuc(a1-2)Gal(b1-4)[Fuc(a1-3)]GlcNAc(b1-2)Man(a1-3)]Man(b1-4)GlcNAc(b1-4)[Fuc(a1-6)]GlcNAc
# Procedure, shortened: as §1
# [8] = biological target: Fuc(a1-2)Gal(b1-4)[Fuc(a1-3)]GlcNAc(b1-2)[Fuc(a1-2)Gal(b1-4)[Fuc(a1-3)]GlcNAc(b1-4)]Man(a1-3)[Fuc(a1-2)Gal(b1-4)[Fuc(a1-3)]GlcNAc(b1-2)Man(a1-6)]Man(b1-4)GlcNAc(b1-4)GlcNAc
# Procedure, shortened: as §1
# [9] = biological target: Fuc(a1-2)Gal(b1-4)[Fuc(a1-3)]GlcNAc(b1-3)Gal(b1-4)[Fuc(a1-3)]GlcNAc
# Procedure, shortened: as §1
# [10] = biological target: Fuc(a1-2)Gal(b1-4)[Fuc(a1-3)]GlcNAc(b1-3)Gal(b1-4)[Fuc(a1-3)]GlcNAc(b1-3)Gal(b1-4)[Fuc(a1-3)]GlcNAc
# Procedure, shortened: as §1
# [11] = biological target: Fuc(a1-2)Gal(b1-4)[Fuc(a1-3)]GlcNAc(b1-3)GalNAc
# Procedure, shortened: as §1
# [12] = biological target: Fuc(a1-2)Gal(b1-4)[Fuc(a1-3)]GlcNAc(b1-3)[Neu5Ac(a2-6)Gal(b1-4)GlcNAc(b1-6)]Gal(b1-4)Glc
# Procedure, shortened: as §1
# [13] = biological target: Fuc(a1-2)Gal3S(b1-4)GlcNAc
# Procedure, shortened: as §1
# [14] = biological target: Fuc(a1-2)Gal6S(b1-3)GlcNAc
# Procedure, shortened: as §1
# [15] = biological target: Fuc(a1-2)Gal6S(b1-3)GlcNAc6S
# Procedure, shortened: as §1
# Fuc(a1-2)Gal6S(b1-4)Glc = biological target: Fuc(a1-2)Gal6S(b1-4)Glc
# Procedure, shortened: as §1
# [16] = biological target: Fuc(a1-2)Gal6S(b1-4)Glc6S
# Procedure, shortened: as §1
# [17] = biological target: Fuc(a1-2)Gal6S(b1-4)GlcNAc
# Procedure, shortened: as §1
# Fuc(a1-2)[Gal(a1-3)]Gal = biological target: Fuc(a1-2)[Gal(a1-3)]Gal
# Procedure, shortened: as §1
# [18] = biological target: Fuc(a1-2)[Gal(a1-3)]Gal(b1-3)GalNAc
# Procedure, shortened: as §1
# [19] = biological target: Fuc(a1-2)[Gal(a1-3)]Gal(b1-3)GalNAc(b1-3)Gal(a1-4)Gal(b1-4)Glc
# Procedure, shortened: as §1
# [20] = biological target: Fuc(a1-2)[Gal(a1-3)]Gal(b1-3)GlcNAc
# Procedure, shortened: as §1
# [21] = biological target: Fuc(a1-2)[Gal(a1-3)]Gal(b1-3)GlcNAc(b1-2)Man(a1-3)[Fuc(a1-2)[Gal(a1-3)]Gal(b1-3)GlcNAc(b1-2)Man(a1-6)]Man(b1-4)GlcNAc(b1-4)GlcNAc
# Procedure, shortened: as §1
# [22] = biological target: Fuc(a1-2)[Gal(a1-3)]Gal(b1-3)GlcNAc(b1-2)Man(a1-3)[Fuc(a1-2)[Gal(a1-3)]Gal(b1-3)GlcNAc(b1-2)Man(a1-6)]Man(b1-4)GlcNAc(b1-4)[Fuc(a1-6)]GlcNAc
# Procedure, shortened: as §1
# [23] = biological target: Fuc(a1-2)[Gal(a1-3)]Gal(b1-3)GlcNAc(b1-3)GalNAc
# Procedure, shortened: as §1
# [24] = biological target: Fuc(a1-2)[Gal(a1-3)]Gal(b1-3)GlcNAc(b1-6)GalNAc
# Procedure, shortened: as §1
# [25] = biological target: Fuc(a1-2)[Gal(a1-3)]Gal(b1-4)Glc
# Procedure, shortened: as §1
# [26] = biological target: Fuc(a1-2)[Gal(a1-3)]Gal(b1-4)GlcNAc
# Procedure, shortened: as §1
# [27] = biological target: Fuc(a1-2)[Gal(a1-3)]Gal(b1-4)GlcNAc(b1-2)Man
# Procedure, shortened: as §1
# [28] = biological target: Fuc(a1-2)[Gal(a1-3)]Gal(b1-4)GlcNAc(b1-2)Man(a1-3)[Fuc(a1-2)[Gal(a1-3)]Gal(b1-4)GlcNAc(b1-2)Man(a1-6)]Man(b1-4)GlcNAc(b1-4)GlcNAc
# Procedure, shortened: as §1
# [29] = biological target: Fuc(a1-2)[Gal(a1-3)]Gal(b1-4)GlcNAc(b1-2)Man(a1-3)[Fuc(a1-2)[Gal(a1-3)]Gal(b1-4)GlcNAc(b1-2)Man(a1-6)]Man(b1-4)GlcNAc(b1-4)[Fuc(a1-6)]GlcNAc
# Procedure, shortened: as §1
# [30] = biological target: Fuc(a1-2)[Gal(a1-3)]Gal(b1-4)GlcNAc(b1-3)GalNAc
# Procedure, shortened: as §1
# [31] = biological target: Fuc(a1-2)[Gal(a1-3)]Gal(b1-4)GlcNAc(b1-3)[Fuc(a1-2)[Gal(a1-3)]Gal(b1-4)GlcNAc(b1-6)]GalNAc
# Procedure, shortened: as §1
# [32] = biological target: Fuc(a1-2)[Gal(a1-3)]Gal(b1-4)GlcNAc(b1-6)GalNAc
# Procedure, shortened: as §1
# [33] = biological target: Fuc(a1-2)[Gal(a1-3)]Gal(b1-4)[Fuc(a1-3)]Glc
# Procedure, shortened: as §1
# [34] = biological target: Fuc(a1-2)[Gal(a1-3)]Gal(b1-4)[Fuc(a1-3)]GlcNAc
# Procedure, shortened: as §1
# [35] = biological target: Fuc(a1-2)[Gal(a1-3)]Gal(b1-4)[Fuc(a1-3)]GlcNAc(b1-3)GalNAc
# Procedure, shortened: as §1
# [36] = biological target: Fuc(a1-2)[Gal(a1-4)]Gal(b1-4)GlcNAc
# Procedure, shortened: as §1
binder,measurement,setting,value
B1,glycan array binding signal (z-score),[1],-0.525
same,glycan array binding signal (z-score),[2],-0.066
same,glycan array binding signal (z-score),[3],0.151
same,glycan array binding signal (z-score),[4],-0.361
same,glycan array binding signal (z-score),[5],-0.133
same,glycan array binding signal (z-score),[6],-0.011
same,glycan array binding signal (z-score),[7],-0.132
same,glycan array binding signal (z-score),[8],0.051
same,glycan array binding signal (z-score),[9],-0.402
same,glycan array binding signal (z-score),[10],-0.027
same,glycan array binding signal (z-score),[11],-0.025
same,glycan array binding signal (z-score),[12],-0.214
same,glycan array binding signal (z-score),[13],-0.113
same,glycan array binding signal (z-score),[14],0.295
same,glycan array binding signal (z-score),[15],2.66
same,glycan array binding signal (z-score),Fuc(a1-2)Gal6S(b1-4)Glc,-0.16
same,glycan array binding signal (z-score),[16],0.217
same,glycan array binding signal (z-score),[17],-0.178
same,glycan array binding signal (z-score),Fuc(a1-2)[Gal(a1-3)]Gal,0.008
same,glycan array binding signal (z-score),[18],-0.212
same,glycan array binding signal (z-score),[19],-0.386
same,glycan array binding signal (z-score),[20],0.083
same,glycan array binding signal (z-score),[21],-0.268
same,glycan array binding signal (z-score),[22],-0.12
same,glycan array binding signal (z-score),[23],-0.11
same,glycan array binding signal (z-score),[24],-0.434
same,glycan array binding signal (z-score),[25],0.002
same,glycan array binding signal (z-score),[26],-0.231
same,glycan array binding signal (z-score),[27],-0.341
same,glycan array binding signal (z-score),[28],-0.035
same,glycan array binding signal (z-score),[29],-0.421
same,glycan array binding signal (z-score),[30],-0.394
same,glycan array binding signal (z-score),[31],0.667
same,glycan array binding signal (z-score),[32],-0.245
same,glycan array binding signal (z-score),[33],-0.264
same,glycan array binding signal (z-score),[34],-0.326
same,glycan array binding signal (z-score),[35],-0.351
same,glycan array binding signal (z-score),[36],-0.266
